# Laboratory results reported in PubChem BioAssay AID504832 (National Center for Advancing Translational Sciences (NCATS), 2011).
# In all, about 310,000 compounds went through this assay and about 18,000 (5.8%) were called active. The shares of active, inactive and inconclusive entries below differ from those in the screen. The call rests on the fitted dose curve; in most records, active means well fitted inhibition curve with a large enough effect; inconclusive means small, poorly fitted or top-dose-only effect, or another doubt; inactive means no such curve, though single readings can be large or run the other way. No potency is given beside an inconclusive call; the fits are too rough.
# Assay: Primary qHTS for delayed death inhibitors of the malarial parasite plastid, 48 hour incubation
# Conditions: P. falciparum luciferase growth in erythrocytes; series mostly up to 28.7 µM
# In short: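 Compounds are pin-transferred into medium, infected erythrocytes (2% hematocrit, 0.1% parasitemia final) are added, and plates sit one parasite generation at 37 C in 5% CO2. Detection reagent is then added and luminescence measured.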
# On the % scale 0 is the no-effect control and ±100 the full control effect; potency means the concentration at half of the fitted maximal effect; tags describe the fitted curve by direction and shape.
SMILES,Potency,"activity change, negative = inhibition"
COc1ccccc1C(CCN(Cc1ccccc1)C(C)=O)c1ccco1 (stereo not drawn),"inconclusive [inhibitor, single point]",–
CCOC(=O)NC(=O)/C(C#N)=C(/C)N(C)C,"inconclusive [inhibitor, partial curve, poor fit]",–
COc1ccccc1/C=C/C(=O)Nc1cccc(S(=O)(=O)N2CCOCC2)c1,"inconclusive [inhibitor, single point]",–
N=c1n(CCCOc2ccccc2Cl)c2ccccc2n1CC(N)=O,"inconclusive [inhibitor, single point]",–
Cc1cccc(COCC(CC(C)C)N2CCN(C(=O)c3ccc(C(C)(C)C)cc3)CCC2=O)c1 (stereo not drawn),active: 7.38 µM,–
Cc1ccccc1NC(=O)c1cn(-c2ccccc2)nc1-c1ccccc1,"inconclusive [inhibitor, single point]",–
CCc1ccc(C(=O)CCC(=O)Nc2cccc(S(=O)(=O)N3CCCCC3)c2)cc1,"inconclusive [inhibitor, single point]",–
Clc1ccc(C2=Nc3cc(Cl)ccc3OC2)cc1,inactive,–
C#CCOC(=O)C1=CCCN(C)C1,"inconclusive [inhibitor, single point]",–
CN(C(=O)/C=C/c1cnc2ccccc2c1)C1CCCCC1,inactive,–
Cc1nnc(NC(=O)c2ccccc2F)s1,inactive,–
COc1ccc(/C=N/NC(=O)c2cc(-c3ccc(C)cc3C)nc3ccccc23)cc1COC(C)=O,inactive,–
CCCN(C(=O)C(C)Oc1cccc(Cl)c1)c1c(N)n(Cc2ccccc2)c(=O)[nH]c1=O (stereo not drawn),"inconclusive [inhibitor, single point]",–
O=C(/C=C/c1cccs1)Nc1ccc(S(=O)(=O)Nc2ncccn2)cc1,inactive,–
O=C(O)CCC(=O)Nc1ccc(-n2ccc(C(F)(F)F)n2)cc1,active: 1.65 µM,–
Cc1ccc(C)c(CSc2nc3ccncc3n2CC(=O)Nc2ccc(C)c(C)c2)c1,"inconclusive [inhibitor, single point]",–
CCOc1ccc(N(CC(=O)NCc2ccccc2)C(=O)CCC(=O)Nc2nccs2)cc1,"inconclusive [inhibitor, partial curve]",–
COc1ccc(/C=C/c2ccc3c(Br)ccc(O)c3n2)cc1,–,inactive: 17.4% [at 0.00184 µM]
CCC(C)NC(=O)[C@H]1N2C(=O)c3c(ccc(OC)c3OC)C2SC1(C)C (stereo partly drawn),"inconclusive [inhibitor, single point]",–
Cc1ccc(N2CC(C(=O)Nc3ccc(S(=O)(=O)N4CCOCC4)cc3)CC2=O)cc1Cl (stereo not drawn),"inconclusive [inhibitor, partial curve, poor fit]",–
O=C1N/C(=C\c2ccc(O)cc2)C(O)=C1C=NCc1ccccc1,"inconclusive [inhibitor, single point]",–
Cc1cc(OCC(O)CN2CCN(CCO)CC2)ccc1C(C)C (stereo not drawn),inactive,–
COc1cc(/C=C/c2nc(N)nc(-c3ccccc3O)n2)cc(OC)c1OC,"inconclusive [inhibitor, single point]",–

SMILES,Potency,"activity change, negative = inhibition"
COc1ccc(-c2cn[nH]c2-c2ccc(OCc3ccccc3)cc2O)cc1,"inconclusive [inhibitor, partial curve]",–
CSCCC1NC(=O)N(CC(=O)Nc2cc(C)on2)C1=O (stereo not drawn),"inconclusive [inhibitor, partial curve, poor fit]",–
CCN(CCCNC(=O)CC(C(=O)N1CCc2ccccc21)n1ccnc1)c1cccc(C)c1 (stereo not drawn),active: 10.4 µM,–
CCCOc1ccc(/C(O)=C2/C(=O)C(=O)N(CCCOC)C2c2cccnc2)cc1 (stereo not drawn),inactive,–
Cc1ccc2oc(C(=O)N(Cc3ccc(N(C)C)cc3)CC3CCCO3)c(C)c2c1 (stereo not drawn),inactive,–
CCOC(=O)c1ccc(NC(=S)N2CCCC2c2ccc(OC)c(OC)c2)cc1 (stereo not drawn),"inconclusive [inhibitor, single point]",–
COC(=O)C1Cc2ccccc2CN1C(=O)CCl (stereo not drawn),"inconclusive [inhibitor, single point]",–
CCOC(=O)N1CCC(N2C(=O)c3ccccc3C2Nc2ccccc2C)CC1 (stereo not drawn),"inconclusive [inhibitor, partial curve]",–
Cc1ccc(NC(=O)CN(C)S(=O)(=O)c2ccc3c(c2)n(C)c(=O)c(=O)n3C)cc1,"inconclusive [inhibitor, single point]",–
CCN(CC(=O)Nc1ccc(S(=O)(=O)N2CCOCC2)cc1)Cc1ccccc1,"inconclusive [inhibitor, partial curve]",–
COCCNC(=S)N(CCc1c(C)[nH]c2ccc(F)cc12)Cc1cccs1,"inconclusive [inhibitor, single point]",–
CCCCn1nc(C(=O)N(CC)CC(=O)Nc2c(F)cccc2F)c2ccccc2c1=O,"inconclusive [inhibitor, single point]",–
CCOC(=O)c1c(C)nc2c(c(SC)nn2-c2ccccc2)c1N,"inconclusive [inhibitor, partial curve, poor fit]",–
Cc1cc(N2CCN(c3ccccc3F)CC2)nc2cc(O)ccc12,active: 10.4 µM,–
CCOc1ccc(CNC(=O)Cn2ccc3cc(S(=O)(=O)N4CCCC4)ccc32)cc1,"inconclusive [inhibitor, partial curve, poor fit]",–
Nc1nc(C23CC4CCC(CC(C4)C2)C3)cs1,"inconclusive [inhibitor, partial curve, poor fit]",–
CCCn1c(SCC(=O)c2c[nH]c3ccccc23)nnc1-c1ccncc1,"inconclusive [inhibitor, single point]",–
CN(Cc1ccccc1)C(=O)c1ccc(NC(=O)C2=CSCCO2)cc1,inactive,–
Cn1c(CO)nc2cc(N)ccc21,inactive,–
Cc1c(OCC(=O)NCC(O)c2ccccc2)ccc2c(-c3ccccc3)cc(=O)oc12 (stereo not drawn),"inconclusive [inhibitor, full curve, poor fit]",–
O=P(O)(OCc1ccccc1)OCc1ccccc1,inactive,–
Cc1ccc(/C=C(\C#N)c2nc3ccccc3[nH]2)s1,"inconclusive [inhibitor, single point]",–
COc1ccc(Cl)cc1S(=O)(=O)N1CCC(C(=O)NCc2ccco2)CC1,"inconclusive [inhibitor, single point]",–

SMILES,Potency,"activity change, negative = inhibition"
O=C(CCc1nnc2n(Cc3ccc(F)cc3)c(=O)c3ccccc3n12)N1CCN(c2ccccn2)CC1,"inconclusive [inhibitor, partial curve]",–
CCOC(=O)N1CCC(NS(=O)(=O)c2ccccc2)CC1,inactive,–
CC1(C)COC2(OC1)C(=O)Nc1ccccc12,"inconclusive [inhibitor, single point]",–
Cc1ccc2cc(CCNC(=O)c3ccc(Br)o3)c(=O)[nH]c2c1,inactive,–
Cc1onc(-c2ccccc2Cl)c1C(=O)N1CCN(c2nc3ccccc3s2)CC1,"inconclusive [inhibitor, full curve, poor fit]",–
CCc1ccc(-c2cc(C)no2)cc1S(=O)(=O)N1CCN(C(=O)c2ccco2)CC1,"inconclusive [inhibitor, single point]",–
CC1C(c2ccccc2)N(C)C(c2ccccc2)C(C)C1(O)C#Cc1ccccc1 (stereo not drawn),active: 9.28 µM,–
COc1ccc(CCN2CCCn3c2nc2c3c(=O)n(Cc3ccccc3F)c(=O)n2C)cc1OC,active: 2.33 µM,–
Cc1ccc(N2CCN(C(=O)c3ccccc3)CC2)c(C)c1,"inconclusive [inhibitor, single point]",–
O=C(Cc1ccc(Cl)cc1)Nc1ccccc1N1CCN(C(=O)c2ccccc2)CC1,"inconclusive [inhibitor, partial curve, poor fit]",–
CCOC(=O)N1CCN(C(=O)CS(=O)(=O)Cc2nc(-c3ccccc3F)oc2C)CC1,inactive,–
CC1(C)CC(=O)C(C=NCCN2CCN(C(=O)NC34CC5CC(CC(C5)C3)C4)CC2)=C(O)C1,"inconclusive [inhibitor, partial curve, poor fit]",–
COC(=O)c1ccc(COc2cccc3c2CCN(Cc2cccc(C)c2)C3=O)o1,"inconclusive [inhibitor, single point]",–
C[C@H]1CCC(=O)N([C@H](CSc2ccc(Br)cc2)Cc2ccccc2)CC1,"inconclusive [inhibitor, single point]",–
CC(=O)Nc1ccc(Br)c(Cl)c1,"inconclusive [inhibitor, full curve, poor fit]",–
CSCSC1=C(C#N)C(c2ccccc2Cl)C(C(C)=O)=C(C)N1 (stereo not drawn),"inconclusive [inhibitor, single point]",–
CC(=O)N1CCN(c2ccccc2NC(=O)c2cc(Br)ccc2Cl)CC1,"inconclusive [inhibitor, single point]",–
O=C(CC1SC(N2CCCCC2)=NC1=O)Nc1cccc(C(=O)NCc2ccc(F)cc2)c1 (stereo not drawn),inactive,–
CCN(CC(=O)NCc1ccc(F)cc1)C(=O)CN1CCN(c2cc(Cl)ccc2C)CC1,"inconclusive [inhibitor, single point]",–
CC(C)(C)/C(O)=C/c1nc2ccccc2[nH]c1=O,inactive,–
COc1ccccc1NC(=O)c1ccc(S(=O)(=O)N2CCC(C)CC2)cc1,"inconclusive [inhibitor, partial curve, poor fit]",–
CC1Cc2ccccc2N1S(=O)(=O)c1cccc(C(=O)N2CCN(c3ncccn3)CC2)c1 (stereo not drawn),"inconclusive [inhibitor, single point]",–
